# The antibiotic and cytotoxicity screens of Wong et al. (2023)
# Some of the results follow.
# Tested on: HSkMC (human skeletal muscle cells)
# Test: cytotoxicity call (relative viability < 0.9)
# Conditions: 10 µM
row,Structure (SMILES),cytotoxicity call
1,CC(C)NC(=O)N(C)C[C@@H]1OCCCC[C@@H](C)Oc2ccc(NC(=O)C3CCCCC3)cc2C(=O)N([C@H](C)CO)C[C@@H]1C,inactive
2,CN(C)CCCCNC(=O)[C@@H]1C[C@@H]2C(=O)N[C@@H](CCCC[N+](C)(C)C)C(=O)N2[C@@H]1c1ccc(O)cc1,inactive
3,CO[C@@H]1CN(C)C(=O)c2ccc(NS(=O)(=O)c3ccccc3)cc2OC[C@H](C)N(C(=O)NC(C)C)C[C@@H]1C,inactive
4,COCC(=O)Nc1ccc2c(c1)C(=O)N(C)[C@@H]1CC[C@H](CC(=O)NCc3ccccc3Cl)O[C@@H]1CO2,inactive
5,CC(C)NC(=O)Nc1ccc2c(c1)CC(=O)N([C@@H](C)CO)C[C@H](C)[C@@H](CN(C)S(=O)(=O)c1ccc(Cl)cc1)O2,inactive
6,C[C@@H]1CCCCO[C@H](CN(C)S(=O)(=O)c2ccc(F)cc2)[C@H](C)CN([C@@H](C)CO)C(=O)c2cc(NC(=O)NC3CCCCC3)ccc2O1,inactive
7,C[C@@H]1CN([C@@H](C)CO)C(=O)c2cccc(NS(=O)(=O)c3ccc(F)cc3)c2O[C@@H]1CN(C)CC1CC1,inactive
8,CCc1c(C)[nH]c2ncnn2c1=O,inactive
9,CC[C@H](C)n1ncn(-c2ccc(N3CCN(c4ccc(OC[C@H]5CO[C@](Cn6cncn6)(c6ccc(Cl)cc6Cl)O5)cc4)CC3)cc2)c1=O,active

# Tested on: S. aureus RN4220
# Test: growth inhibition call (relative growth <= 0.2)
# Conditions: 50 µM
row,Structure (SMILES),growth inhibition call
1,COc1ccc(S(=O)(=O)Nc2ccc3c(c2)C(=O)N([C@@H](C)CO)C[C@@H](C)[C@@H](CN(C)C(=O)Nc2cccc4ccccc24)O3)cc1,inactive
2,Cc1ccc(S(=O)(=O)Nc2ccc3c(c2)CC(=O)N([C@@H](C)CO)C[C@@H](C)[C@@H](CN(C)Cc2ccncc2)O3)cc1,inactive
3,C[C@H](CO)N1C[C@H](C)[C@@H](CN(C)Cc2ccc(Oc3ccccc3)cc2)Oc2cc(Br)ccc2S1(=O)=O,inactive
4,COc1ccc(NC(=O)N(C)C[C@@H]2OCCCC[C@@H](C)Oc3ccc(NS(=O)(=O)c4ccc(C)cc4)cc3C(=O)N([C@H](C)CO)C[C@@H]2C)cc1,inactive
5,Cc1cc(O)cc2c1O[C@](C)(CCC[C@H](C)CCC[C@H](C)CCCC(C)C)CC2,inactive
6,NC(=O)c1cn([C@@H]2O[C@H](CO)[C@@H](O)[C@H]2O)c2ncnc(N)c2c1=O,inactive
7,C[C@@H]1CCCCO[C@@H](CN(C)Cc2ccc3c(c2)OCO3)[C@H](C)CN([C@@H](C)CO)C(=O)c2cc(NS(=O)(=O)c3ccccc3)ccc2O1,inactive
8,Cc1ccc(S(=O)(=O)NC2=NCN(CCN3CCOCC3)CN2)cc1,inactive
9,Cc1ccc(S(=O)(=O)N(C)C[C@H]2OCCCC[C@@H](C)Oc3ccc(NS(=O)(=O)c4ccc(Cl)cc4)cc3C(=O)N([C@H](C)CO)C[C@@H]2C)cc1,inactive
10,O=C(C[C@H]1CC[C@@H]2[C@H](COC[C@H](O)CN2S(=O)(=O)c2cccc(F)c2)O1)NCc1ccncn1,inactive
11,C[C@H]1CN([C@@H](C)CO)C(=O)Cc2cc(NC(=O)Nc3ccc(C(F)(F)F)cc3)ccc2O[C@H]1CN(C)S(C)(=O)=O,inactive
12,C[C@@H]1CN([C@@H](C)CO)C(=O)c2cc(NS(=O)(=O)c3ccc(F)cc3)ccc2O[C@@H]1CN(C)Cc1ccncc1,inactive
13,CCS(=O)(=O)NCC[C@@H]1CC[C@@H](NS(=O)(=O)c2ccccc2C)[C@H](CO)O1,inactive
14,COc1ccc(S(=O)(=O)Nc2ccc3c(c2)C(=O)N([C@@H](C)CO)C[C@H](C)[C@@H](CN(C)Cc2ccc4c(c2)OCO4)OCCCC[C@H](C)O3)cc1,inactive
15,CCO[C@H]1[C@H]2CC[C@@H]1N(C(=O)N(C)C)CCO2,inactive
16,C[C@@H]1CCCCO[C@@H](CN(C)CC2CCCCC2)[C@@H](C)CN([C@H](C)CO)C(=O)c2cc(NC(=O)Nc3ccc(F)cc3)ccc2O1,inactive
17,Cc1ccc(S(=O)(=O)Nc2ccc3c(c2)C(=O)N([C@H](C)CO)C[C@H](C)[C@H](CN(C)C(=O)c2ccccc2)OCCCC[C@@H](C)O3)cc1,inactive
18,O=C1O[C@H](c2ccccc2)[C@H](c2ccccc2)N2[C@H]1[C@@H](C(=O)Nc1nc3ccccc3s1)[C@]1(C(=O)Nc3ccc(C#CCCO)cc31)[C@H]2c1ccc(OCCO)cc1,inactive
19,Nc1nc(Cl)nc2c1ncn2[C@@H]1O[C@H](CO)[C@@H](O)[C@H]1O,inactive
20,CN1CCCC1c1cccnc1.O=C(O)C(O)C(O)C(=O)O.O=C(O)C(O)C(O)C(=O)O (centres undefined),inactive

row,Structure (SMILES),growth inhibition call
1,Cc1noc(C)c1NC(=O)N(C)C[C@H]1Oc2ccc(NC(=O)Nc3ccc(C(F)(F)F)cc3)cc2CC(=O)N([C@H](C)CO)C[C@@H]1C,inactive
2,CO[C@@H](CN(C)S(=O)(=O)c1cccc(Cl)c1)[C@H](C)CN([C@@H](C)CO)S(=O)(=O)c1ccc(Cl)cc1,inactive
3,C[C@@H]1CN([C@H](C)CO)C(=O)c2c(c3ccccc3n2C)-c2ccccc2CO[C@@H]1CN(C)Cc1ccc(Oc2ccccc2)cc1,inactive
4,C[C@H](CO)N1C[C@H](C)[C@@H](CN(C)S(=O)(=O)c2cn(C)cn2)Oc2ccc(N(C)C)cc2CC1=O,inactive
5,Cc1cc(=O)n2c(C)nnc2[nH]1,inactive
6,C[C@@H]1CN([C@H](C)CO)C(=O)c2cccc(NC(=O)C3CCCCC3)c2O[C@H]1CN(C)C(=O)Nc1ccc(C(F)(F)F)cc1,inactive
7,O=C1C[C@H](N2C(=O)CCC2=O)[C@@H]2CO[C@@H]1O2,inactive
8,CCCCCCCc1c(C)c(O)cc2c1[nH]c1ccccc12,inactive
9,CC(C)NC(=O)N(C)C[C@@H]1OCCCC[C@H](C)Oc2ccc(NC(=O)Nc3ccc(F)cc3)cc2C(=O)N([C@@H](C)CO)C[C@H]1C,inactive
10,O=C(O)CCCNc1n[nH]c(=O)[nH]c1=O,inactive
11,C[C@H]1CCCCO[C@H](CN(C)S(=O)(=O)c2cccs2)[C@@H](C)CN([C@@H](C)CO)C(=O)c2cc(NS(C)(=O)=O)ccc2O1,inactive
12,CC(C)NC(=O)N(C)C[C@@H]1OCCCC[C@@H](C)Oc2ccc(NC(=O)C3CCCCC3)cc2C(=O)N([C@H](C)CO)C[C@@H]1C,inactive
13,CN(C)CCCCNC(=O)[C@@H]1C[C@@H]2C(=O)N[C@@H](CCCC[N+](C)(C)C)C(=O)N2[C@@H]1c1ccc(O)cc1,inactive
14,CO[C@@H]1CN(C)C(=O)c2ccc(NS(=O)(=O)c3ccccc3)cc2OC[C@H](C)N(C(=O)NC(C)C)C[C@@H]1C,inactive
15,COCC(=O)Nc1ccc2c(c1)C(=O)N(C)[C@@H]1CC[C@H](CC(=O)NCc3ccccc3Cl)O[C@@H]1CO2,inactive
16,CC(C)NC(=O)Nc1ccc2c(c1)CC(=O)N([C@@H](C)CO)C[C@H](C)[C@@H](CN(C)S(=O)(=O)c1ccc(Cl)cc1)O2,inactive
17,C[C@@H]1CCCCO[C@H](CN(C)S(=O)(=O)c2ccc(F)cc2)[C@H](C)CN([C@@H](C)CO)C(=O)c2cc(NC(=O)NC3CCCCC3)ccc2O1,inactive
18,C[C@@H]1CN([C@@H](C)CO)C(=O)c2cccc(NS(=O)(=O)c3ccc(F)cc3)c2O[C@@H]1CN(C)CC1CC1,inactive
19,CCc1c(C)[nH]c2ncnn2c1=O,inactive
20,CC[C@H](C)n1ncn(-c2ccc(N3CCN(c4ccc(OC[C@H]5CO[C@](Cn6cncn6)(c6ccc(Cl)cc6Cl)O5)cc4)CC3)cc2)c1=O,inactive
